Data taken from PubChem BioAssay AID1460 (National Center for Advancing Translational Sciences (NCATS), 2008).
Values joined by “and” are separate entries in the source; they are usually repeats but may differ in a detail not shown here. Equal values may be shown once. The campaign covered roughly 270,000 compounds. About 5,800 (2.1%) were called active. Inconclusive means that the source gave no clear call. Such entries were picked first, then a sample of the others. The call rests on the fitted dose curve; in most records, active means well fitted inhibition curve with a large enough effect; inconclusive means small, poorly fitted or top-dose-only effect; inactive means flat fitted curve, though single readings scatter. Potencies beside an inconclusive call are fits to weak or partial responses and may not hold up.

biological target: Microtubule-associated protein tau (Homo sapiens) (UniProt P10636); experiment: qHTS for Inhibitors of Tau Fibril Formation, Thioflavin T Binding; details: recombinant tau K18 P301L (four-repeat tau fragment), heparin-induced fibrillization, ThT fluorescence; series mostly up to 57.4 µM; activity, negative = inhibition: at the top concentration; further: nearly all actives have a fitted effect of over 55% in size
Outline: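 K18 P301L tau (15 uM + 0.24 uM Alexa 594-tagged), heparin 20 uM, NaOAc pH 7, 6 h 37 C; ThT 30 uM, 1 h RT, ex 450/em 510 nm.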
On the % scale 0 is the no-effect control and ±100 the full control effect; potency means the concentration at half of the fitted maximal effect; tags describe the fitted curve by direction and shape.

UniProt P10636, sequence (P10636 whole entry, looked up, the tested form may be a part): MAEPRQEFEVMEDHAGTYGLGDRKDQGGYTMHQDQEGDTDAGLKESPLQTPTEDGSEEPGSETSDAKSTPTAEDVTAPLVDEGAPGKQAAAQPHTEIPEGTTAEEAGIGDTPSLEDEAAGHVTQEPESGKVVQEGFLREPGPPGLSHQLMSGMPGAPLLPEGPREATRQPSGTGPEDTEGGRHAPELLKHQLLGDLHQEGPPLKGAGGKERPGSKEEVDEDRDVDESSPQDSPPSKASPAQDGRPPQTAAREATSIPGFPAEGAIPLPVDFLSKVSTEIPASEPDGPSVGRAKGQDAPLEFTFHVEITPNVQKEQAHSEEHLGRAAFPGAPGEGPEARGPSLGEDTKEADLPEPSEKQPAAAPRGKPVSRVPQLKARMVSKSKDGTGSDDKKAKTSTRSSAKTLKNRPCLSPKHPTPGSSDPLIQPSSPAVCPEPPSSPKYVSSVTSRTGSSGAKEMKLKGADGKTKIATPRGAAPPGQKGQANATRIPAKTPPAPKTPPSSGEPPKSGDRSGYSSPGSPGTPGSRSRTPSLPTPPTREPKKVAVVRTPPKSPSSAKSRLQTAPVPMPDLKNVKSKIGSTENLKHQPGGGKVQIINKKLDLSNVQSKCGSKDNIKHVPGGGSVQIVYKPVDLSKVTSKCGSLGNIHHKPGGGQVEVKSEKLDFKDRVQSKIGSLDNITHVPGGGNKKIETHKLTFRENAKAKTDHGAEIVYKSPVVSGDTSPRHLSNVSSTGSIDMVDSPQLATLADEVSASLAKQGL

Compound	Potency	activity, negative = inhibition
Cc1ccc(C2C(C(=O)c3ccco3)=C(O)C(=O)N2c2nnc(C)s2)cc1 (centres undefined)	inconclusive: 22.4 µM [inhibitor, single point]	
COc1ccc(-c2cn3cccnc3n2)cc1NC(=O)Nc1ccc(Cl)cc1	inconclusive: 28.2 µM [inhibitor, partial curve]	
Cc1ccc(N2CC(C(=O)NCc3ccc(C)n3C)CC2=O)cc1 (centres undefined)	inconclusive: 35.5 µM [inhibitor, single point]	
COc1ccc(C(=O)c2oc3ccccc3c2N)cc1	inconclusive: 7.94 µM [inhibitor, partial curve]	
COc1cc2cc(C(=O)Nc3ccccc3)c(N)nc2cc1OC	inconclusive: 39.8 µM [inhibitor, single point]	
CCOC(=O)c1ccc(NC(=O)C(C)N2C(=O)c3ccccc3C2=O)cc1 (centres undefined)		inactive: -7.66%
CCSc1ccccc1C(=O)Nc1ccc(S(=O)(=O)NC(C)=O)cc1	inconclusive: 44.7 µM [inhibitor, single point]	
O=C(CC1NCCc2ccccc21)Nc1ccccc1 (centres undefined)		inactive: -2.49%
COc1ccc2[nH]c3c(c2c1)CCN(C(=O)c1cccc(Cl)c1)C3c1ccc(F)cc1 (centres undefined)	inconclusive: 4.47 µM [inhibitor, single point]	
Cc1csc(NC(=O)CSc2nnc(-c3ccncc3)n2C)n1		inactive: -8.03%
CC(C)c1nn2c(=O)cc(COC(=O)c3ccc(NC(=O)C4CCCCC4)cc3)nc2s1		inactive: 2.63%
Cc1ccc2[nH]c(=O)c(NC(N)=S)nc2c1	inconclusive: 14.1 µM [inhibitor, partial curve]	
COC(=O)c1cc(=O)n(CCc2ccc(OC)cc2)c(=Nc2ccc(F)c(Cl)c2)s1	inconclusive: 17.8 µM [inhibitor, partial curve]	
CCOC(=O)c1ccc(N=c2sc(C(=O)OC)cc(=O)n2CCCN2CCOCC2)cc1	inconclusive: 22.4 µM [inhibitor, single point] and inconclusive: 20 µM [inhibitor, partial curve]	
Cc1ccc(N=C2NC(=O)/C(=C/c3cccn3C)S2)cc1	active: 6.31 µM	
Cn1c(CC2Sc3ccccc3NC2=O)nnc1SCC(=O)c1ccc(Cl)cc1 (centres undefined)	inconclusive: 14.1 µM [inhibitor, partial curve]	
COc1ccc2c(c1)Cc1sc(NC(C)=O)nc1-2	active: 31.6 µM	

Compound	Potency	activity, negative = inhibition
COC(=O)c1ccc(C2c3c(oc4ccccc4c3=O)C(=O)N2CCCN2CCOCC2)cc1 (centres undefined)		inactive: -7.24%
Cc1cc(NC(=O)c2ccc3c(c2)OCCO3)ccc1NC(=O)c1cc2ccccc2o1	inconclusive: 0.631 µM [inhibitor, full curve]	
COc1cccc(C2C3=C(Nc4[nH]n(-c5ccccc5)c(=O)c42)c2ccccc2C3=O)c1 (centres undefined)	active: 5.01 µM	
O=[N+]([O-])c1ccc(N2CCN(c3ccc(Cl)nn3)CC2)c(Cl)c1	inconclusive: 1.26 µM [inhibitor, full curve]	
CCOc1ccc(Nc2nc(Cc3nnc(SCC(=O)NCc4ccco4)n3CC)cs2)cc1	inconclusive: 28.2 µM [inhibitor, partial curve]	
COc1ccc(C2=C(N)c3ccccc3C2=O)cc1	inconclusive: 15.8 µM [inhibitor, partial curve]	
CN(C)S(=O)(=O)c1ccc(Cl)c(NC(=O)CSc2nc3ccccc3c(=O)n2CCCN2CCOCC2)c1		inactive: 6.64%
N=C1C(c2nc(-c3cccc([N+](=O)[O-])c3)cs2)=C(O)CN1NC(=O)c1ccco1	inconclusive: 44.7 µM [inhibitor, single point]	
Cc1cc(=O)[nH]c(N/N=C/c2c(C)oc3ccccc23)n1	inconclusive: 2.82 µM [inhibitor, full curve]	
COc1cc2c(cc1NC(=O)c1cccc(Br)c1)CCCC2	inconclusive: 31.6 µM [inhibitor, single point]	
CCOc1cccc2c1N[C@@H](c1ccc(C(=O)O)cc1)[C@H]1CC=C[C@@H]21	inconclusive: 20 µM [inhibitor, partial curve]	
Cc1sc2ncnc(Nc3ccc(N4CCOCC4)cc3)c2c1-c1ccccc1	inconclusive: 14.1 µM [inhibitor, partial curve]	
COC(=O)N=Nc1c(O)n(Cc2ccccc2)c2ccccc12	inconclusive: 11.2 µM [inhibitor, partial curve]	
CCOCCCNCc1ccc(OC)cc1		inactive: -4.83%
COc1cccc(CSc2nc3ccccc3cc2C=O)c1	inconclusive: 25.1 µM [inhibitor, partial curve, poor fit]	
CC1CCC(C(=O)O)NC1c1cccc(N2CCOCC2)c1 (centres undefined)		inactive: -0.443% [at 11.5 µM]
CCOC(=O)c1cc(-c2ccc(F)cc2)n(CC(=O)NC2CCCCCC2)c1C		inactive: -5.94%
